# In PubChem BioAssay AID588855 (National Center for Advancing Translational Sciences (NCATS), 2011):
# The campaign covered roughly 410,000 compounds. About 5,000 (1.2%) were called active. Inconclusive results, whose numbers are uncertain, are shown with a selection of clear calls. The call rests on the fitted dose curve; in most records, active means well fitted inhibition curve with a large enough effect; inconclusive means small, poorly fitted or top-dose-only effect; inactive means no such curve, though single readings can be large or run the other way. Where the call is inconclusive, the potency comes from a doubtful curve fit.
# Test: qHTS for Inhibitors of TGF-b; further: nearly all actives have a fitted effect of over 65% in size
# Details: HepG2 CAGA-GFP TGF-b/SMAD3 reporter, GFP fluorescence, 18 h, TGF-beta stimulated, 500 pg/mL final; series mostly up to 46.1 µM; activity, negative = inhibition: at the top concentration
# Procedure, shortened: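 TGF-beta reporter screen: HEPG2 CAGA-GFP, 1% FBS, 500 pg/mL TGF-beta final, 18 h; per-cell GFP summed per well; curves fitted and categorized by class.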
# On the % scale 0 is the no-effect control and ±100 the full control effect; potency means the concentration at half of the fitted maximal effect; tags describe the fitted curve by direction and shape.
Structure (SMILES),Potency,"activity, negative = inhibition"
COc1cccc(Nc2nc(-c3ccccc3)nc3ccccc23)c1,"inconclusive: 35.5 µM [inhibitor, single point]",–
CCN(Cc1ccccc1)c1ncnc2c1cnn2-c1ccc(F)cc1,–,inactive: -10.4%
Cc1ccc(-c2nnc(Nc3cccc(Cl)c3)c3ccccc23)cc1S(=O)(=O)N1CCN(C)CC1,"inconclusive: 5.62 µM [inhibitor, single point]",–
CCOc1ccccc1NC(=O)Nc1nnc(N2CCCC(C)C2)s1 (configuration not stated),–,inactive: -21.2%
CC1(C)CC(=O)C/C(=N\NC(=O)CCc2ccc(S(=O)(=O)N3CCOCC3)cc2)C1,"inconclusive: 35.5 µM [inhibitor, single point]",–
N/C(=N\OC(=O)c1ccc([N+](=O)[O-])cc1)c1cccnc1,"inconclusive: 5.62 µM [inhibitor, single point]",–
CCOc1ccc(-n2cc(C(=O)N3CCC(C)CC3)c3cc(OC)c(OC)cc3c2=O)cc1,active: 12.6 µM,–
COc1cccc(-c2sc3cc(OC)c(OC)cc3c2-c2ccc(OCCN3CCCCC3)cc2)c1,"inconclusive: 35.5 µM [inhibitor, single point]",–
CC1CCCCN1CCCNC(=O)CN1C(=O)c2cccnc2Oc2ccc(Cl)cc21 (configuration not stated),"inconclusive: 35.5 µM [inhibitor, single point]",–
COc1ccc(CN2C[C@@H](CO)O[C@@H](n3cnc4c(NCc5ccco5)ncnc43)C2)cc1,–,inactive: 22.3%
CCOc1ccccc1C1C(C(=O)Nc2ccccc2)=C(C)Nc2nc(SCC(=O)c3ccc(C)cc3)nn21 (configuration not stated),"inconclusive: 0.282 µM [inhibitor, partial curve, poor fit]",–
O=c1[nH]c(C2CCN(S(=O)(=O)c3ccc(C(F)(F)F)cc3)CC2)nc2c1nnn2Cc1cccc(F)c1,"inconclusive: 25.1 µM [inhibitor, single point]",–
COc1ccc(C(=O)c2sc3nc4c(c(C(F)(F)F)c3c2N)CN(C(C)=O)CC4)cc1OC,–,inactive: 18.5%
CCN(CC(=O)NC(=O)NCc1ccccc1)Cc1ccccc1,–,inactive: 4.41%
COc1ccc(CCN(C)CC(=O)Nc2cc(C)nc3ccccc23)cc1OC,–,inactive: -35.4%
CCOC(=O)c1sc(=S)n(-c2ccc(Cl)cc2)c1SC,"inconclusive: 25.1 µM [inhibitor, partial curve, poor fit]",–
COc1ccc(S(=O)(=O)N2CCCCCC2)cc1C(=O)N(C)CCOc1ccccc1,"inconclusive: 35.5 µM [inhibitor, single point]",–
COc1ccc(CCNC(=O)CCC(=O)Nc2ccc3nc(N4CCN(C)CC4)cc(C)c3c2)cc1OC,–,inactive: -8.08%
CCN(CC)c1nc(N)c2c(N)nc(OC)cc2c1C#N,"inconclusive: 11.2 µM [inhibitor, single point]",–
C=CCCc1ccc(C#N)c(SCc2c(C(=O)OCC)c3cc(OC(C)=O)c(Br)cc3n2C)n1,"inconclusive: 6.31 µM [inhibitor, single point]",–
CCOc1ccc(OCC)c(NC(=O)c2nnn(CC(=O)Nc3cc(Cl)ccc3OC)c2N)c1,"inconclusive: 5.62 µM [inhibitor, single point]",–

Structure (SMILES),Potency,"activity, negative = inhibition"
COc1c(CC=C(C)C)cc(C2CC(=O)c3c(O)cc(O)cc3O2)c(CC=C(C)C)c1O (configuration not stated),"inconclusive: 35.5 µM [inhibitor, single point]",–
Cc1ccc(NC(=O)Cc2nn(C)c(=O)c3ccccc23)cc1F,–,inactive: 0%
Cc1ccc(-c2c3c(=O)n(C)c(=O)n(C)c3c3n2-c2ccccc2NC3c2ccc(C)cc2O)cc1 (configuration not stated),active: 6.31 µM,–
CC1(C(=O)NS(=O)(=O)Cc2ccccc2C(F)(F)F)CCN1C(=O)C/C=C/c1ccccc1 (configuration not stated),"inconclusive: 6.31 µM [inhibitor, single point]",–
Cc1nn2c(-c3ccc(F)cc3)ccnc2c1Cl,"inconclusive: 14.1 µM [inhibitor, single point]",–
COc1ccc(CNC(=O)C2CCCN(Cc3nc(-c4cccc(C)c4)oc3C)C2)cc1 (configuration not stated),"inconclusive: 12.6 µM [inhibitor, partial curve, poor fit]",–
CCOC(=O)c1cc(-c2ccccc2)n(CCC(=O)O)c1C,–,inactive: -8.32%
O=C(N1CCN(c2ccccn2)CC1)N1c2ccccc2Sc2ccccc21,"inconclusive: 14.1 µM [inhibitor, single point]",–
CC(C)(C)c1ccc(/C=C(\c2nc3ccccc3[nH]2)S(=O)(=O)c2ccccc2)cc1,active: 15.8 µM,–
Cc1ccc(Cn2c(SCc3ccc(C(=O)N4CCCCC4)cc3)nc3ccncc32)cc1,active: 11.2 µM,–
CC1CC(C)CN(CC(O)COC2CC(C)CC(C)(C)C2)C1 (configuration not stated),"inconclusive: 17.8 µM [inhibitor, single point]",–
CC(C)CCN(C(=S)Nc1cccc(F)c1)C(C)c1cccs1 (configuration not stated),"inconclusive: 15.8 µM [inhibitor, single point]",–
CCc1ccccc1NC(=O)Cn1nc(CC)n2c(cc3sccc32)c1=O,"inconclusive: 8.91 µM [inhibitor, partial curve]",–
Cc1cc(-n2c(C)cc(C(=O)CSc3[nH]c(=O)cc(C(F)(F)F)c3C#N)c2C)no1,"inconclusive: 5.01 µM [inhibitor, single point]",–
Cc1ccccc1NC(=O)C1CCN(S(=O)(=O)c2c(C)noc2/C=C/c2ccco2)CC1,–,inactive: -8.81%
CCOC(=O)c1c(C)n(-c2ccc(C)cc2)c2ccc(OCC(O)CNCC3CCCO3)cc12 (configuration not stated),"inconclusive: 35.5 µM [inhibitor, single point]",–
O=C(c1ccc(OC2CCN(CCc3ccccc3)CC2)cc1)N1CCCC(CO)C1 (configuration not stated),–,inactive: 7.03%
Cc1cc(NC(=O)C(C)Sc2nc(-c3cccs3)nc3ccccc23)no1 (configuration not stated),"inconclusive: 25.1 µM [inhibitor, single point]",–
Cc1cccc(NS(=O)(=O)c2cccc(C(=O)N3CCN(S(=O)(=O)c4ccccc4)CC3)c2)c1,"inconclusive: 15.8 µM [inhibitor, single point]",–
COc1ccccc1-c1cn(S(=O)(=O)c2ccc(F)cc2)nc1N,"inconclusive: 3.55 µM [inhibitor, partial curve, poor fit]",–
CN(C)c1ccc(/C=C/c2sc3ccccc3[n+]2C)cc1,"inconclusive: 8.91 µM [inhibitor, partial curve, poor fit]",–
